Only a selection was taken, and the strongest signals are over-represented in it overall.
Assays:
Assay in all cases: glycan array binding signal (z-score within array); higher = stronger binding
Conditions in all cases: glycan notation: IUPAC condensed, linker removed
[1] = system: GlcNAc(b1-3)Gal(b1-4)GlcNAc(b1-3)Gal(b1-4)GlcNAc(b1-3)Gal(b1-4)GlcNAc(b1-3)Gal(b1-4)GlcNAc(b1-2)Man(a1-3)[GlcNAc(b1-3)Gal(b1-4)GlcNAc(b1-3)Gal(b1-4)GlcNAc(b1-3)Gal(b1-4)GlcNAc(b1-3)Gal(b1-4)GlcNAc(b1-2)Man(a1-6)]Man(b1-4)GlcNAc(b1-4)[Fuc(a1-6)]GlcNAc
Outline: (§1)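 Glycan array binding is given as a within-array Z-score, which can be read as non-binding when negative. The arrays, 3228 of them, came from the Consortium for Functional Glycomics database and were retained only where the protein sequence was available. Z-scores were averaged across arrays of the same protein sequence at different concentrations or buffers and across linkers.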

[2] = system: GlcNAc(b1-3)Gal(b1-4)GlcNAc(b1-3)Gal(b1-4)GlcNAc(b1-3)Gal(b1-4)GlcNAc(b1-3)Gal(b1-4)GlcNAc(b1-2)[GlcNAc(b1-3)Gal(b1-4)GlcNAc(b1-3)Gal(b1-4)GlcNAc(b1-3)Gal(b1-4)GlcNAc(b1-3)Gal(b1-4)GlcNAc(b1-6)]Man(a1-6)[GlcNAc(b1-3)Gal(b1-4)GlcNAc(b1-3)Gal(b1-4)GlcNAc(b1-3)Gal(b1-4)GlcNAc(b1-3)Gal(b1-4)GlcNAc(b1-2)Man(a1-3)]Man(b1-4)GlcNAc(b1-4)[Fuc(a1-6)]GlcNAc
Outline: as §1

[3] = system: GlcNAc(b1-3)Gal(b1-4)GlcNAc(b1-3)Gal(b1-4)GlcNAc
Outline: as §1

[4] = system: GlcNAc(b1-3)[GlcNAc(b1-6)]Gal(b1-4)GlcNAc
Outline: as §1

[5] = system: GlcNAc(b1-3)Gal(b1-4)GlcNAc
Outline: as §1

GlcNAc(b1-3)Gal(b1-4)Glc = system: GlcNAc(b1-3)Gal(b1-4)Glc
Outline: as §1

MBP (Homo sapiens) (chain not printed)
glycan array binding signal (z-score) [1]: 9.18
glycan array binding signal (z-score) [2]: 6.24

Gal 3 (Homo sapiens) (chain not printed)
glycan array binding signal (z-score) [1]: 6.09

Thrombomodulin Extracellular (Homo sapiens) (chain not printed)
glycan array binding signal (z-score) [2]: 3.09

Gal 8-short (Homo sapiens) (chain not printed)
glycan array binding signal (z-score) [3]: 1.59
glycan array binding signal (z-score) [4]: -0.822

Meso764 (Homo sapiens) (chain not printed)
glycan array binding signal (z-score) [3]: -0.273

Siglec-2 (Homo sapiens) (chain not printed)
glycan array binding signal (z-score) [5]: -0.097
glycan array binding signal (z-score) (GlcNAc(b1-3)Gal(b1-4)Glc): 0.1

Serum Amyloid P component (Homo sapiens) (chain not printed)
glycan array binding signal (z-score) [5]: -0.34

FGF2 (chain not printed)
glycan array binding signal (z-score) [4]: -0.167

Source: the supplement of paper PMC8728848
